Where “and” joins values, the source holds several entries; their conditions need not be identical. Equal values may be shown once.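 Dose response: 5 concentrations. Exposure: 48 h. Format: 96-well plates. Endpoint: linear interpolation; highest concentration if not reached. GI50 is the concentration that inhibits growth by half.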 Calls of active or inactive are those of the source. Rule as the data show it: active = GI50 up to about 1.1 µM and inactive = higher.
The molecules below were run on NCI-H322M (assay: NCI tumour cell line growth inhibition, 48 h).

Row | Structure (SMILES) | GI50
1 | C[C@]12CC[C@@H]3c4cc(OCC(F)(F)F)c(O)cc4CC[C@H]3[C@@H]1CC[C@@H]2O | inactive: 2.11 µM
2 | Cc1nc2c(nc1C)C(=O)c1ccccc1C2=O | inactive: 2.21 µM
3 | CCOC(=O)[C@]1(OC(C)=O)C[C@H](OC(C)=O)[C@@H](C(F)COP(=O)(OCc2ccccc2)OCc2ccccc2)O1 (stereo partly drawn) | inactive: > 100 µM and inactive: 81.1 µM
4 | N/N=C(\N)SCCCCCCCCCCS/C(N)=N/N | inactive: 39.2 µM
5 | Cc1cc(-c2no[n+]([O-])c2-c2cc(C)sc2S(C)(=O)=O)c(S(C)(=O)=O)s1 | inactive: > 100 µM
6 | CN1N=CSC12C(=O)N(c1ccc(Cl)cc1)C(=O)N2c1ccc(Cl)cc1 (stereo not drawn) | inactive: 4.67 µM
7 | COc1cc2c(cc1OCCCCCCCCCCN1C(=O)c3cccc4cccc(c34)C1=O)N=C[C@@H]1CCCN1C2=O | inactive: 17.3 µM
8 | Cc1ncc(CO)c(CN)c1O | inactive: > 100 µM
9 | O=C1c2ccccc2N2OC3(N4CCOCC4)CCCC3C12c1ccccc1 (stereo not drawn) | inactive: > 100 µM
10 | O=[N+]([O-])c1ccccc1[S+]([O-])c1ccccc1 (stereo not drawn) | inactive: 57.8 µM
11 | CC(=O)N1C(C(=O)NN2CCOCC2)CSC1c1ccccc1 (stereo not drawn) | inactive: > 100 µM
12 | C=CCN1C(=O)CC1N(CC=C)S(=O)(=O)c1ccc(C)cc1 (stereo not drawn) | inactive: > 100 µM
13 | COc1ccc(C2OC(c3ccncc3)=NN2C)cc1F (stereo not drawn) | inactive: > 100 µM
14 | O=[N+]([O-])c1cc2ncc(-c3ccccc3)c(O)c2cc1/C(Cl)=C/c1ccccc1 | inactive: 13.6 µM
15 | O=C(c1ccc(Cl)cc1)C1OC12C(=O)Nc1c(Cl)cc(Cl)cc12 (stereo not drawn) | inactive: 54 µM
16 | CCOCN/C(N)=N\C#N | inactive: > 100 µM
17 | CCOC(=O)c1c(C)c2c(n1C)CCc1c[nH]nc1-2 | inactive: > 100 µM
18 | CC(=O)Nc1c(Nc2ccccc2)[nH]c(C)nc1=S | inactive: > 100 µM
19 | C1=N\c2ccc(cc2)/N=C\c2ccccc2OCc2cccc(n2)COc2ccccc2/1 | inactive: > 100 µM

Row | Structure (SMILES) | GI50
20 | O=C(/C=C/c1ccco1)N1CCN(Cc2ccccc2)CC1 | inactive: > 100 µM
21 | COC1CCC(=O)N1CN(C(C)=O)c1ccc(C)cc1 (stereo not drawn) | inactive: > 100 µM
22 | COc1cc(NS(C)(=O)=O)ccc1NCc1c2ccccc2nc2ccccc12 | inactive: > 100 µM
23 | CCOC(=O)/C(C#N)=C/c1ccc(CO)o1 | inactive: > 100 µM
24 | COc1ccc2c(c1)C1Oc3ccccc3CC1CO2 (stereo not drawn) | inactive: 81.7 µM
25 | O=C1Nc2cccc(Cl)c2/C1=C\c1cccnc1 | inactive: 16.3 µM
26 | CN(CCO)CCCC1COc2ccccc2O1 (stereo not drawn) | inactive: > 100 µM
27 | COc1cc([C@@H]2c3cc4c(cc3[C@@H](NC(=O)c3ccc([N+](=O)[O-])cc3)C3COC(=O)[C@@H]32)OCO4)cc(OC)c1O (stereo partly drawn) | inactive: 3.88 µM
28 | C=C1c2nc3ccccc3n2C=C(c2ccc(Cl)cc2)N1c1ccc(OC)cc1 | inactive: 20 µM
29 | O=C1N[C@H]2C(=O)c3c(Cl)sc(Cl)c3[C@H]2O1 | inactive: 9.55 µM
30 | O=C(C1OC1c1cccc([N+](=O)[O-])c1)C12CC3CC(CC(C3)C1)C2 (stereo not drawn) | inactive: 9.73 µM
31 | Nc1cc(=O)n(-c2ccccc2)c(=S)n1-c1ccccc1 | inactive: > 100 µM
32 | Cc1cc2nc(N3C(=O)/C(=C/c4ccc(Oc5ccccc5)cc4)N=C3c3ccccc3)sc2cc1C | inactive: > 100 µM
33 | CC[C@@]1(O)CC(OC2CC(N3CCOCC3)C(O)C(C)O2)c2c(O)c3c(c(O)c2[C@H]1O)C(=O)c1cccc(O)c1C3=O (stereo partly drawn) | active: 0.205 µM
34 | C=CCCCCCCCC(O)C1C[C@H](O)C(CCCCC)O1 (stereo partly drawn) | inactive: 17.9 µM
35 | COc1cccc2c1[C@]1(O)C(O)CCCC21 (stereo partly drawn) | inactive: > 100 µM
36 | COc1ccccc1-c1cc(=O)c2ccc(OC)c(OC)c2o1 | inactive: 61.7 µM
37 | O=C(C(=O)N1CCc2ccccc21)c1c[nH]c2ccccc12 | inactive: > 10 µM
38 | O=[N+]([O-])c1ccc(/N=N/N2CCCC2)cc1 | inactive: > 100 µM

Source: ChEMBL document CHEMBL1201862, “PubChem BioAssay data set” (2004)
